# Results as given in PubChem BioAssay AID1347165 (National Center for Advancing Translational Sciences (NCATS), 2019).
# The campaign covered roughly 220,000 compounds. About 5,700 (2.6%) were called active. The shares of active, inactive and inconclusive entries below differ from those in the screen. Calls come from the whole dose curve; as a rule, active = well fitted inhibition curve with a large enough effect; inconclusive = small, poorly fitted or top-dose-only effect; inactive = no such curve, though single readings can be large or run the other way. Potencies beside an inconclusive call are fits to weak or partial responses and may not hold up.
# Target: Lysine-specific demethylase 5B (Homo sapiens) (UniProt Q9UGL1)
# Assay: Primary screen for KDM5B Histone Demethylases FDH-coupled qHTS; note: nearly all actives have a fitted effect of over 70% in size; for activity change, negative = inhibition: 0% is about no effect
# Settings: FDH-coupled NADH fluorescence (FDH is formaldehyde dehydrogenase); activity change, negative = inhibition: at 57.7 µM (top of the series) unless noted
# Procedure, shortened: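 Here, H3K4me3 peptide (12.5 µM in substrate mix) is demethylated by KDM5BΔAP, 200 nM final, after 10 min compound exposure. Formaldehyde product is coupled through FDH (0.25 U/mL in mix) to NADH fluorescence; 30-min ΔRFU feeds dose-response curves.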
# Potency is the fitted concentration of half-maximal effect; tags give direction and shape of the fitted curve.
# Sequence of UniProt Q9UGL1 (Q9UGL1 whole entry, looked up): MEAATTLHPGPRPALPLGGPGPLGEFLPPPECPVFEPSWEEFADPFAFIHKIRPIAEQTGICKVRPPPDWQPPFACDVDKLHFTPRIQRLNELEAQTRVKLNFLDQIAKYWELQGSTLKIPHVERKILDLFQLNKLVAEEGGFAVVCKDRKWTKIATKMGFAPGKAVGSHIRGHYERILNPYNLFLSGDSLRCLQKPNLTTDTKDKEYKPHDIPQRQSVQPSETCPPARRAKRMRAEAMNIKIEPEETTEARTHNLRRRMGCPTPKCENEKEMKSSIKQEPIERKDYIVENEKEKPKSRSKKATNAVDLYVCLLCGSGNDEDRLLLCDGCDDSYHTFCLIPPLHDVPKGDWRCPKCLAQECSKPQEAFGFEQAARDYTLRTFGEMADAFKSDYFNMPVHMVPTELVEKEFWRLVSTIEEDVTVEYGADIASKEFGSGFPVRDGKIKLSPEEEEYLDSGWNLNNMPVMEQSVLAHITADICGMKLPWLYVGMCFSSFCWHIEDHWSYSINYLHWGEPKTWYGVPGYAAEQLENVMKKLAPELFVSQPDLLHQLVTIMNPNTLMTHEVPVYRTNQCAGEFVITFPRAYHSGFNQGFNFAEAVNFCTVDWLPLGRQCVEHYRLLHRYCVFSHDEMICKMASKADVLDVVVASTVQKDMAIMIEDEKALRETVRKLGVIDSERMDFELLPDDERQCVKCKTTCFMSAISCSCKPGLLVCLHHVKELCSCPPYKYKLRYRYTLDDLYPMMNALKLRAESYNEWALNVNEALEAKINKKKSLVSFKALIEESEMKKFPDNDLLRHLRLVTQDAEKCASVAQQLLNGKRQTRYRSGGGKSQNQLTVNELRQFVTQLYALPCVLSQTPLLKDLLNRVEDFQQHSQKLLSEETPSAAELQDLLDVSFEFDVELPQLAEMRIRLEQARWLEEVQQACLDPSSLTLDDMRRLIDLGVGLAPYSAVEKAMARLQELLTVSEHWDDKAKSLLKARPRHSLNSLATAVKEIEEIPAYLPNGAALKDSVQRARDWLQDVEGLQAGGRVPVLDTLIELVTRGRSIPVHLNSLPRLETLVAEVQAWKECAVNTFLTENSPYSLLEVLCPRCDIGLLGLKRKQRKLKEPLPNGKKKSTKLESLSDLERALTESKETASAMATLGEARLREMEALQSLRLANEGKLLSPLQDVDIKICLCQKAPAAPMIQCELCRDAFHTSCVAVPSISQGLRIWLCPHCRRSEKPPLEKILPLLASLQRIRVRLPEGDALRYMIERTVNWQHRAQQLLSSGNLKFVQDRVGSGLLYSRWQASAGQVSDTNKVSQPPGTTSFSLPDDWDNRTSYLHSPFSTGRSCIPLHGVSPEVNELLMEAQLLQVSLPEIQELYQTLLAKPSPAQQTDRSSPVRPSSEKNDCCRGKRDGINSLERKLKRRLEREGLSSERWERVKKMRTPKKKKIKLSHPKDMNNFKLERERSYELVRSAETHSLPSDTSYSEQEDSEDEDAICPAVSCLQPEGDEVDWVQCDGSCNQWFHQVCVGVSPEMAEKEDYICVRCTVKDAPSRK
Compound,Potency,"activity change, negative = inhibition"
COc1ccc(OC)c(CNC(=O)c2cccc(NC(=O)N3CCSc4ncccc43)c2)c1,"inconclusive: 31.6 µM [inhibitor, partial curve, poor fit]",–
O=c1c2oc3ccccc3c2n(Cc2cccc(C(F)(F)F)c2)c(=O)n1Cc1ccc2c(c1)OCO2,"inconclusive: 3.16 µM [inhibitor, full curve, poor fit]",–
CCCCn1nc(NC(=O)CCC)c2cc3cc(OC)ccc3nc21,"inconclusive: 39.8 µM [inhibitor, single point]",–
CCN(CC)C(=S)Nc1c(C)cccc1C,inactive,–
O=C(NC1CC1)C1CCN(C2CCN(C(=O)c3c(O)cccc3O)CC2)CC1,inactive,–
COc1ccc(/C=C/c2nc(C#N)c(N(C)C)o2)cc1OC,"inconclusive: 1.78 µM [inhibitor, full curve, poor fit]",–
Clc1ccccc1CNC[C@H]1Cn2cc(-c3ccccc3)nc2CO1,inactive,–
CC(=O)Nc1ccc(Nc2cc(C(C)C)nc3c(-c4ccccc4)cnn23)cc1,"inconclusive: 31.6 µM [inhibitor, partial curve, poor fit]",–
CCc1cc(=O)oc2cc(C)cc(OCC(=O)NCc3ccccn3)c12,"inconclusive: 1.78 µM [inhibitor, partial curve, poor fit]",–
CCOC(=O)c1ccc2ncc(C(=O)OCC)c(Nc3ccc(C)c(Br)c3)c2c1,–,inconclusive: -42.9% [inhibitor]
COc1ccc(Br)cc1CNC(=O)CN1C(=O)CSc2ccc(S(=O)(=O)N3CCOCC3)cc21,–,inconclusive: -31% [inhibitor]
Cc1cccc(C(=O)NC2CCN(c3cc(-c4ccc(Cl)cc4)[nH]n3)C2)c1 (stereo not given),"inconclusive: 4.47 µM [inhibitor, full curve]",–
Cc1nc(-c2c3n(c(=O)n(CC(=O)Nc4cccc(F)c4)c2=O)CCCC3)no1,inactive,–
CCS(=O)(=O)c1nc(-c2ccc(F)cc2)cc(C(F)(F)F)n1,"inconclusive: 28.2 µM [inhibitor, single point]",–
COCCNC(=O)CCn1nc(-c2ccc(C)cc2)c2ccccc2c1=O,inactive,–
CCOCCOC1CCN(C(=O)c2ccccn2)CC1,inactive,–
Oc1ccccc1C(=S)N1CCN(C(=S)c2ccccc2O)CC1,"inconclusive: 39.8 µM [inhibitor, partial curve, poor fit]",–
O=C(Nc1cccc(C(F)(F)F)c1)c1ccc(Cl)c(N2C(=O)CCS2(=O)=O)c1,inactive,–
CCOC(=O)c1sc(NC(=O)Nc2cccc(Cl)c2)nc1C,inactive,–
COc1ccccc1NC(=O)c1ccc(NC(=O)COC(=O)c2cc(C)nc3ccccc23)cc1,inactive,–
Cc1ccc(/C=N/NC(=O)c2ccc(-n3cnnn3)cc2)cc1,"inconclusive: 28.2 µM [inhibitor, partial curve, poor fit]",–
CCN(Cc1ccco1)C(=O)c1cc2cc(F)ccc2[nH]1,"inconclusive: 28.2 µM [inhibitor, partial curve, poor fit]",–
COc1ccc2c(C)c(CC(=O)NCCCN3CCCC3=O)c(=O)oc2c1OC,"inconclusive: 14.1 µM [inhibitor, partial curve, poor fit]",–
O=C(CCCc1c[nH]c2ccccc12)N1CCc2nc3cc[nH]n3c(=O)c2C1,inactive,–

Compound,Potency,"activity change, negative = inhibition"
Nc1nccnc1C(=O)NCCc1ccsc1,"inconclusive: 22.4 µM [inhibitor, partial curve, poor fit]",–
COc1cc(OC)cc(C(=O)Nc2ccc(S(=O)(=O)Nc3onc(C)c3C)cc2)c1,"inconclusive: 28.2 µM [inhibitor, partial curve, poor fit]",–
Cc1ccc(-n2c3c(cc(-c4nc(-c5ccc(Cl)cc5)cs4)c2=O)C(=O)CC(C)(C)C3)cc1,"inconclusive: 5.01 µM [inhibitor, partial curve, poor fit]",–
Cc1ccc(C)c(C(=O)c2ccccc2C(=O)N(C)Cc2cccs2)c1,inactive,–
CN(Cc1ccccc1)C(=O)C1CCN(Cc2cc3ccccc3n2Cc2ccccc2)CC1,"inconclusive: 44.7 µM [inhibitor, single point]",–
CCCC1NC(=O)N(Cc2ncc(-c3ccc(F)cc3)o2)C1=O (stereo not given),inactive,–
CC(=O)C(Sc1ccc(C)cc1)(Sc1ccc(C)cc1)C(C)=O,"inconclusive: 17.8 µM [inhibitor, partial curve, poor fit]",–
O=C(OCc1nc2ccccc2o1)c1cccc(O)c1,inactive,–
CC(NC(=O)c1ccc(Cl)o1)c1ccc(C(F)(F)F)cc1 (stereo not given),inactive,–
CCN(CC)S(=O)(=O)c1ccc(C)c(NC(=O)CNCc2ccccc2OC)c1,"inconclusive: 20 µM [inhibitor, partial curve, poor fit]",–
COc1ccc2[nH]c3c(c2c1)CCN(C)C31CCN(C(=O)c2ccsc2)CC1,"inconclusive: 25.1 µM [inhibitor, partial curve, poor fit]",–
CCCCN(CC)C(=O)CSc1n[nH]c(=O)c2cc(-c3ccc(OC)c(OC)c3)nn12,inactive,–
O=C(CSc1nnc(-c2ccccc2F)o1)N1CCc2ccccc21,"inconclusive: 39.8 µM [inhibitor, single point]",–
Cn1c(O)c(N=NC(=N)N)c2ccccc21,"inconclusive: 8.91 µM [inhibitor, full curve, poor fit]",–
CCCCCCCc1n[nH]c(=S)n1Cc1ccccc1,"inconclusive: 35.5 µM [inhibitor, partial curve, poor fit]",–
CCCCCCCCCCCCCCCCN(C)C,"inconclusive: 35.5 µM [inhibitor, single point]",–
COC1CCN(C(=O)c2ccnc(-c3nnc4ccc(N(C)C)nn34)c2)CC1,"inconclusive: 44.7 µM [inhibitor, partial curve, poor fit]",–
Cc1nn(CCC#N)c(C)c1[C@@H]1C=C[C@@H](NC(=O)NC(C)C)C1,"inconclusive: 39.8 µM [inhibitor, single point]",–
CC(C)C(C)NC(=O)Nc1ccc(C(N)=O)c(Cl)c1 (stereo not given),inactive,–
Cc1nc2nc(NCc3ccc(Cl)cc3)[nH]n2c(=O)c1CCC(=O)Nc1ccc2ccccc2c1,inactive,–
CCC(Sc1nnc(-c2ccc(OC)cc2)c(-c2ccc(OC)cc2)n1)C(=O)Nc1cccc(OC)c1 (stereo not given),"inconclusive: 22.4 µM [inhibitor, single point]",–
O=C(N[C@H]1CCN2C(=O)c3cc(-c4ccccc4)ccc3NC(=O)[C@H]12)c1cccc(F)c1,"inconclusive: 31.6 µM [inhibitor, single point]",–
Cn1ncc2c(N3CCN(c4ccccc4Cl)CC3)ncnc21,–,inconclusive: -33.4% [inhibitor]
CCCCN(C)C(=O)Cn1ncc2c([nH]c3ccc(C)cc32)c1=O,"inconclusive: 11.2 µM [inhibitor, partial curve, poor fit]",–

Compound,Potency,"activity change, negative = inhibition"
O=C1NCCCCCN(Cc2ccc(F)cc2F)[C@H]2CCC[C@@H]12,"inconclusive: 17.8 µM [inhibitor, single point]",–
O=C(Cn1c(NCc2ccccc2)nc2ccccc21)Nc1ccccc1,inactive,–
Nc1c(C(=O)NC2CCCCC2)nnn1-c1ccccc1,inactive,–
CCCCS(=O)CC(O)CSc1nc(-c2ccc(OC)cc2)cc(-c2ccccc2)c1C#N (stereo not given),"inconclusive: 31.6 µM [inhibitor, partial curve, poor fit]",–
O=c1oc2ccccc2c(O)c1Sc1ccc(Cl)cc1,"inconclusive: 39.8 µM [inhibitor, partial curve, poor fit]",–
CC(C)NC(=O)CN1CCN(Cc2cc(=O)c3cccc(Cl)c3[nH]2)CC1,"inconclusive: 28.2 µM [inhibitor, partial curve, poor fit]",–
Oc1ccc(/C=C/c2nc3c(ccc4ccccc43)s2)cc1,"inconclusive: 39.8 µM [inhibitor, single point]",–
Nc1nccc(-c2ccc([N+](=O)[O-])cc2)n1,inactive,–
Cc1ccccc1-n1nnnc1SCC(=O)Nc1ccc2nccnc2c1,"inconclusive: 2 µM [inhibitor, full curve, poor fit]",–
COCCN1CCCCCC(O)c2cc(C(=O)NCCCN(C)C)ccc21 (stereo not given),"inconclusive: 14.1 µM [inhibitor, partial curve, poor fit]",–
CN(C)c1ccc2ncc(Nc3ccccc3Cl)n2n1,active: 35.5 µM,–
Cc1cccc(-n2nnnc2C(C)(C)NC2CCCCC2)c1,inactive,–
CC(C)OC(=O)c1ccc(Cl)c(N)c1,inactive,–
Cc1cc(C(=O)CSc2nnnn2C2CCCC2)c(C)n1Cc1ccco1,inactive,–
CC(NC(=O)c1ccc([N+](=O)[O-])o1)C12CC3CC(CC(C3)C1)C2 (stereo not given),"inconclusive: 10 µM [inhibitor, partial curve, poor fit]",–
Cc1nc2c(-c3ccccc3)c(C)[nH]n2c(=O)c1Cc1ccc(C(C)C)cc1,"inconclusive: 15.8 µM [inhibitor, partial curve, poor fit]",–
CCC(=O)Nc1ccc2nc(-c3ccccc3C)oc2c1,"inconclusive: 39.8 µM [inhibitor, partial curve, poor fit]",–
Cc1cn2nc(C(=O)Nc3ccc(Cl)c(C)c3)cc2c(N2CCSCC2)n1,active: 22.4 µM,–
O=C(NC[C@H]1Cn2c(-c3ccc4c(c3)OCO4)cnc2CO1)Nc1ccc(F)cc1,active: 28.2 µM,–
Cc1ccc([C@H]2C[C@@H](O)[C@@H](O)[C@@H]2NC(=O)c2ccccn2)cc1,"inconclusive: 31.6 µM [inhibitor, partial curve, poor fit]",–
C=CCNC(=O)c1cc2cccnn2n1,active: 31.6 µM,–
CC(=O)Nc1ccc(S(=O)(=O)N[C@H]2CO[C@H]3[C@@H]2OC[C@@H]3Nc2nccc(C(C)(C)C)n2)cc1,inactive,–
